# Source: PMC4336329 (PLoS ONE, 2015)
# Out of some 310,000 compounds screened, about 2,200 (0.71%) showed an effect of 50% or more. Effects have a minus sign here. Some of the results follow.
# Biological target: human ether-à-go-go-related gene (hERG) potassium channel (human, UniProt Q12809)
# Assay: primary screen, population patch clamp on CHO cells stably expressing hERG
# Chain of human ether-à-go-go-related gene (hERG) potassium channel (Q12809 whole entry, looked up): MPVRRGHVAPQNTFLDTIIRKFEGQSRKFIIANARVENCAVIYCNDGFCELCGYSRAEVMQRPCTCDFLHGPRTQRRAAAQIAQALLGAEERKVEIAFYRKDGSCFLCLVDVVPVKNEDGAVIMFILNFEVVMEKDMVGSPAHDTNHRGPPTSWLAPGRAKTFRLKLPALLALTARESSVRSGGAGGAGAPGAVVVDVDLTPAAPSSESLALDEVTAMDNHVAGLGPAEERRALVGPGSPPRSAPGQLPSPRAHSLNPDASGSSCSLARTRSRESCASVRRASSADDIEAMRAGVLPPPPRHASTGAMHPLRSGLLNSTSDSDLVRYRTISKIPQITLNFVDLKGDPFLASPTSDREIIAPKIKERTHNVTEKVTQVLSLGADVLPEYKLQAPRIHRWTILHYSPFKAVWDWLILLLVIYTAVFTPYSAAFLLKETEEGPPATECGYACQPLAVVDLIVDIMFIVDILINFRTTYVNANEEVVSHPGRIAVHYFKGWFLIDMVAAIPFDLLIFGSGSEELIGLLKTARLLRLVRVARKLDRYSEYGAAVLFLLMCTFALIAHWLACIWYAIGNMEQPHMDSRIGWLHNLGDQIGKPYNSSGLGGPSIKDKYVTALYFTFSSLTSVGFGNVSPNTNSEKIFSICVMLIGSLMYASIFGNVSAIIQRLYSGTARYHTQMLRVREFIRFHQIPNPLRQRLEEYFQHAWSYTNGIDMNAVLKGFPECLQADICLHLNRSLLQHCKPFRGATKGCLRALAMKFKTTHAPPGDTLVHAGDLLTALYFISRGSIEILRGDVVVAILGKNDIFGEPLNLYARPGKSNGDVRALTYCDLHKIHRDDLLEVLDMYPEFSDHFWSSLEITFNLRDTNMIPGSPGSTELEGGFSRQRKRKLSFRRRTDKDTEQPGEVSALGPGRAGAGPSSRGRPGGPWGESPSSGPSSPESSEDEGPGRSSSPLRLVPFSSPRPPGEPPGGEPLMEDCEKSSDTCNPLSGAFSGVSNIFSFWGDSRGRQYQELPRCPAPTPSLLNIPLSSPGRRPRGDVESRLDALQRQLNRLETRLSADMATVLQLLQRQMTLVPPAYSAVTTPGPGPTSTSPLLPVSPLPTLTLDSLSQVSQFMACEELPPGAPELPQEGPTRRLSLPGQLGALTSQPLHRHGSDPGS
row,Compound,"hERG current change (%, negative = inhibition) at 1uM"
1,CCc1c(O)nc(SCC(=O)Nc2ccc(C)cc2)n(C2CCCCC2)c1=O,12%
2,CO/N=C(\Cn1ncc(N2CCCC2)c(Cl)c1=O)c1ccc(Cl)cc1,11.1%
3,COCC(=O)Nc1ccc(S(=O)(=O)NCC2CCCO2)cc1 (stereo not shown),17.5%
4,CCN(CC)CCNC(=O)c1ccc(NC(=O)c2ccc(C(=O)c3ccccc3)cc2)cc1,2.73%
5,CCc1cc(C(=O)N2CCCC(C(=O)c3ccc(OC)c(F)c3)C2)n(C)n1 (stereo not shown),-14%
6,O=C(O)c1ccc2c(=O)n3c(nc2c1)/C(=C/c1ccccc1Br)CC3,8.85%
7,COc1ccc(-n2c(SCC(=O)NCc3ccco3)nc3c([nH]c4ccccc43)c2=O)cc1,14.1%
8,CC(=O)c1ccc(N2C(=O)[C@@H]3C(C(=O)CCN4C(=O)c5ccccc5C4=O)=NN[C@@H]3C2=O)cc1,-4.19%
9,Cc1ccccc1OCC(=O)Nc1ccccc1N1CCCCC1,13%
10,C[C@H](NC(=O)c1nc[nH]c1C(=O)NCC(=O)OC(C)(C)C)C(=O)OC(C)(C)C,11.9%
11,COc1ccc(OC)c(NC(=O)Cc2coc3cc(C)cc(C)c23)c1,4.9%
12,CCCn1c(NC(=O)CN2C(=O)NC3(CCCC3)C2=O)nc2ccccc21,15.8%
13,CC1=C(C(=O)Nc2ccccc2)C(c2ccccc2[N+](=O)[O-])NC(=O)N1 (stereo not shown),0.0053%
14,Cc1ccc(-n2c(C(C)C)nc3oc4ccccc4c(=O)c3c2=O)cc1,9.75%
15,Cc1ccc(-c2c[n+](CC(=O)Nc3cc(=O)n(C)c(=O)n3C)c3n2CCC3)cc1.[Cl-],9.69%
16,COc1ccccc1NC(=O)NCCC1=CCCCC1,7.64%
17,CCCS(=O)(=O)c1nc(S(=O)(=O)c2ccc(C)cc2)c(N2CC(C)OC(C)C2)s1 (stereo not shown),15.9%
18,COC(=O)c1ccccc1S(=O)(=O)N1CCC(C(=O)N2CCC2)CC1,2.77%
19,CC(Sc1nnc(-c2cccs2)n1C1CC1)C(=O)NCC1CCCO1 (stereo not shown),1.72%
20,O=C(CN(C(=O)CCC(=O)Nc1nccs1)c1ccc(F)cc1)NCc1ccccc1,26.4%
21,C=C(C)CNC(=S)NNC(=O)c1cc(C)oc1C,6.78%
22,O=C(Nc1c2c(nc3ccccc13)CCCC2)c1ccccc1Cl,6.76%

row,Compound,"hERG current change (%, negative = inhibition) at 1uM"
1,O=C1C(=O)N(CCS(=O)(=O)c2ccccc2)c2ccc(Cl)cc21,13.3%
2,C#CCOCCOCCOCCNc1nc(N2CCN(C(=O)[C@H](CCC(=O)O)n3cc(C(N)Cc4ccc(O)cc4)nn3)CC2)nc(N2CCN(C(=O)[C@H](CCC(=O)O)n3cc(C(N)[C@H](C)CC)nn3)CC2)n1.Cl (stereo partly shown),18.3%
3,Cc1nn(-c2nnc(NC3CCCCC3)nn2)c(C)c1Br,15.9%
4,Cc1cc(C)c(O)c(NC(=S)NC(=O)Cc2ccccc2)c1,12.8%
5,COc1nsnc1N1CCOCC1,7.66%
6,O=C(NCc1ccccc1CN1CCCC1)c1ccc(Cl)c(N2CCCC2=O)c1,8.59%
7,O=C(O)CCn1cc(-c2ccc(Cl)cc2)nc1-c1ccc(Cl)nc1,12.4%
8,C/C(CC(=O)Nc1ccccn1)=N\NC(=O)c1cnccn1,5.98%
9,COCCn1c(SCC(=O)NC2CCCC2)nnc1-c1ccncc1,2.28%
10,Cc1nn(-c2ccc(Cl)cc2)c2sc(C(=O)c3c(N)n(C)c(=O)n(C)c3=O)cc12,1.16%
11,CC1=C(C(=O)N2CCOCC2)C(c2ccc(Br)cc2)NC(=S)N1c1ccccc1 (stereo not shown),6.05%
12,CN(C)S(=O)(=O)c1cccc(NC(=O)NCCCl)c1,8.11%
13,O=C(CCC(=O)N1CCN(C(=O)c2ccco2)CC1)c1ccc(F)cc1,-24.4%
14,Cc1cc(=O)oc2cc(OCc3nnc(-c4ccccc4Br)o3)ccc12,4.02%
15,CC1CN(C(=O)c2c([N+](=O)[O-])cnn2C)CC(C)O1 (stereo not shown),1.78%
16,Cc1cnc(C)c(N2CCC(C(=O)NCc3ccco3)CC2)n1,2.16%
17,COCCCn1c(=S)[nH]c2sc3c(c2c1=O)CCCS3,19.2%
18,COc1ccc(NC(=O)CN(C)CC(=O)Nc2ccc(N3CCOCC3)cc2)c([N+](=O)[O-])c1,13.9%
19,C=CCSc1ncc(C(=O)OCC)c(N)n1,4.37%
20,COC(=O)N(c1ccccc1)P(=O)(Oc1ccccc1)Oc1ccccc1,11.1%
21,Oc1ccc(Br)cc1/C=N/Nc1ncc(-c2ccccc2)cn1,11.8%
22,O=C(CN1C(=O)c2ccccc2C1=O)OC(C(=O)c1ccc(Cl)cc1)c1ccccc1 (stereo not shown),12%

row,Compound,"hERG current change (%, negative = inhibition) at 1uM"
1,CCC/C(O)=C1\C(=O)CC(C)(C)CC1=Nc1cccc([N+](=O)[O-])c1,3.6%
2,O=C(CC1(O)C(=O)Nc2ccccc21)c1cccc(Br)c1 (stereo not shown),11.9%
3,Oc1c(C=Nc2ccc(Cl)cn2)sc2ccccc12,6.69%
4,CCc1nnc(NS(=O)(=O)c2ccc(N=Cc3c(C)[nH]n(-c4cccc(Cl)c4)c3=O)cc2)s1,8.28%
5,COc1ccc(-c2nc(C#N)c(NCCc3ccccc3)o2)cc1OC,10.5%
6,CN1C(=O)N(CC(=O)N2CCN(c3ccccc3F)CC2)C(=O)C12CCCCC2,18.3%
7,COc1cc(S(=O)(=O)N2CCN(C(=O)c3ccccc3)CC2)c(OC)cc1Br,-0.265%
8,COc1ccccc1N(Cc1ccccc1)S(=O)(=O)c1cc(C(=O)O)ccc1Cl,16.3%
9,CCn1nc(NS(=O)(=O)c2ccccc2[N+](=O)[O-])c2cc3cccc(C)c3nc21,4.35%
10,CSCCC(NC(=O)c1ccco1)C(=O)OCC(=O)Nc1sccc1C#N (stereo not shown),7.07%
11,Cn1c(=O)c(=O)n(C)c2cc(S(=O)(=O)NCCc3ccccc3)ccc21,-15.2%
12,Cc1cccc(NC(=S)NC2CC3CCCC(C2)N3CC(C)C)c1C (stereo not shown),2.95%
13,CCN(CC)C(=O)CSc1nnc2c3ccccc3n(C)c2n1,9.94%
14,CC(=O)c1ccc(NC(=O)C(C)OC(=O)C2CC(=O)N(c3ccc4c(c3)OCCO4)C2)cc1 (stereo not shown),14.3%
15,COCCCNc1nnc(Cc2ccccc2)c2ccccc12,-13.1%
16,COc1ccc(-n2c(=O)c3c4c(sc3n(CC(=O)NCc3ccco3)c2=O)CCC4)c(OC)c1,-6.43%
17,COc1ccc(NC(=O)Nc2sc(NS(=O)(=O)c3ccccc3)nc2C)cc1,18.3%
18,CC1(c2ccccc2)O[C@@H]2C[C@H]3[C@@H]4CCC5=CC(=O)C=C[C@]5(C)[C@@]4(F)[C@@H](O)C[C@]3(C)[C@]2(C(=O)CO)O1 (stereo partly shown),-44.6%
19,Cn1c(=O)c(-[n+]2ccccc2)c([O-])c2ccccc21,3.63%
20,COc1ccccc1C1C=C(c2ccc(Cl)cc2)Nc2nc(NS(C)(=O)=O)nn21 (stereo not shown),-2.26%
21,CC(=O)Nc1ccccc1OC(=O)N(C)C,2.5%
22,CN1C(=O)/C(=C2\SC(=S)N(NC(=O)c3cccnc3)C2=O)c2ccccc21,3.52%

row,Compound,"hERG current change (%, negative = inhibition) at 1uM"
1,O=C(COC(=O)c1ccc(Br)o1)NCc1ccc(F)cc1,11.2%
2,CSc1nc(Oc2ccc(C)cc2)cc(C(F)(F)F)n1,16.9%
3,CC1(C)CC(=O)C=C(c2cc3ccccc3s2)C1,12.8%
4,COc1ccccc1NC(=O)CSc1nc(O)cc(=O)[nH]1,16.5%
5,C=CCSc1nnc(NC(=O)CSc2nnc(C)s2)s1,-2.49%
6,Cc1nc(SCC(=O)O)c(C#N)c(-c2ccco2)c1C(=O)N(C)C,8.87%
7,CC(=O)COc1ccc2cc(-c3ccccc3)c(=O)oc2c1,8.41%
8,COC(=O)CC(=O)Cc1nc(N)nc(Nc2ccc(C)c(C)c2)n1,-1.19%
9,O=C(CSc1nnc(Cc2ccccc2)o1)NCc1ccco1,20.2%
10,O=c1c2ccccc2nc(COc2ccccc2)n1/N=C/c1ccc(O)c(O)c1,9.04%
11,COc1ccc(S(=O)(=O)N2CCC(C(=O)NCCc3ccccc3)CC2)cc1OC,-11.9%
12,Cc1ccc(S(=O)(=O)CCC(=O)OC(C)C(=O)Nc2ccc(N3CCOCC3)cc2)cc1 (stereo not shown),8.5%
13,CCC(=O)N1N=C(c2ccccc2)CC1c1ccccc1 (stereo not shown),10.5%
14,COc1ccc(CC(=O)Nc2cc(Cl)ccc2O)cc1,5.55%
15,CSc1cccc(N2CC(C(=O)Nc3cccc(S(=O)(=O)N4CCCC4)c3)CC2=O)c1 (stereo not shown),3.97%
16,O=C(NCc1ccco1)c1ccc(Cn2c(=O)c3ccccc3n(Cc3cccc(Cl)c3)c2=O)cc1,-8.04%
17,CC(=O)c1ccc(-c2ccc(/C=C(/Sc3n[nH]c(C)n3)C(=O)O)o2)cc1,-14.1%
18,O=C(NCC1(c2ccccc2)CCOCC1)c1cccs1,17.4%
19,O=C(CN1CCN(c2ccccn2)CC1)NCc1cccs1,-12.4%
